# Results published in the supplement of paper PMC8728848.
# The list shows a part of the results.
# B1: CFEM-CGl (Candida glabrata), Q6FRS0 (protein)
# chain: VLATPPACLLACVAQVSKQSSQCHTLNQVGCFCENENTAIKNCLDSICPNGNSDAAYTAFKNSCGDVGKAVASV
# What was measured:
# Assay in all cases: glycan array binding signal (z-score within array); higher = stronger binding
# Settings in all cases: glycan notation: IUPAC condensed, linker removed
# [1] = molecular target: Fuc(a1-2)Gal6S(b1-3)GlcNAc
# Summary of the method: (§1)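 From the Consortium for Functional Glycomics database, 3228 arrays were curated, keeping only those whose protein sequence was available. Binding is given as a within-array Z-score averaged across arrays sharing a protein sequence and across linkers. Negative Z-scores can be read as non-binding.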
# [2] = molecular target: Fuc(a1-2)Gal6S(b1-3)GlcNAc6S
# Summary of the method: as §1
# Fuc(a1-2)Gal6S(b1-4)Glc = molecular target: Fuc(a1-2)Gal6S(b1-4)Glc
# Summary of the method: as §1
# [3] = molecular target: Fuc(a1-2)Gal6S(b1-4)Glc6S
# Summary of the method: as §1
# Fuc(a1-2)[Gal(a1-3)]Gal = molecular target: Fuc(a1-2)[Gal(a1-3)]Gal
# Summary of the method: as §1
# [4] = molecular target: Fuc(a1-2)[Gal(a1-3)]Gal(b1-3)GalNAc
# Summary of the method: as §1
# [5] = molecular target: Fuc(a1-2)[Gal(a1-3)]Gal(b1-3)GalNAc(b1-3)Gal(a1-4)Gal(b1-4)Glc
# Summary of the method: as §1
# [6] = molecular target: Fuc(a1-2)[Gal(a1-3)]Gal(b1-3)GlcNAc
# Summary of the method: as §1
# [7] = molecular target: Fuc(a1-2)[Gal(a1-3)]Gal(b1-3)GlcNAc(b1-2)Man(a1-3)[Fuc(a1-2)[Gal(a1-3)]Gal(b1-3)GlcNAc(b1-2)Man(a1-6)]Man(b1-4)GlcNAc(b1-4)GlcNAc
# Summary of the method: as §1
# [8] = molecular target: Fuc(a1-2)[Gal(a1-3)]Gal(b1-3)GlcNAc(b1-2)Man(a1-3)[Fuc(a1-2)[Gal(a1-3)]Gal(b1-3)GlcNAc(b1-2)Man(a1-6)]Man(b1-4)GlcNAc(b1-4)[Fuc(a1-6)]GlcNAc
# Summary of the method: as §1
# [9] = molecular target: Fuc(a1-2)[Gal(a1-3)]Gal(b1-3)GlcNAc(b1-3)GalNAc
# Summary of the method: as §1
# [10] = molecular target: Fuc(a1-2)[Gal(a1-3)]Gal(b1-3)GlcNAc(b1-6)GalNAc
# Summary of the method: as §1
# [11] = molecular target: Fuc(a1-2)[Gal(a1-3)]Gal(b1-4)Glc
# Summary of the method: as §1
# [12] = molecular target: Fuc(a1-2)[Gal(a1-3)]Gal(b1-4)GlcNAc
# Summary of the method: as §1
# [13] = molecular target: Fuc(a1-2)[Gal(a1-3)]Gal(b1-4)GlcNAc(b1-2)Man
# Summary of the method: as §1
# [14] = molecular target: Fuc(a1-2)[Gal(a1-3)]Gal(b1-4)GlcNAc(b1-2)Man(a1-3)[Fuc(a1-2)[Gal(a1-3)]Gal(b1-4)GlcNAc(b1-2)Man(a1-6)]Man(b1-4)GlcNAc(b1-4)GlcNAc
# Summary of the method: as §1
# [15] = molecular target: Fuc(a1-2)[Gal(a1-3)]Gal(b1-4)GlcNAc(b1-2)Man(a1-3)[Fuc(a1-2)[Gal(a1-3)]Gal(b1-4)GlcNAc(b1-2)Man(a1-6)]Man(b1-4)GlcNAc(b1-4)[Fuc(a1-6)]GlcNAc
# Summary of the method: as §1
# [16] = molecular target: Fuc(a1-2)[Gal(a1-3)]Gal(b1-4)GlcNAc(b1-3)GalNAc
# Summary of the method: as §1
# [17] = molecular target: Fuc(a1-2)[Gal(a1-3)]Gal(b1-4)GlcNAc(b1-3)[Fuc(a1-2)[Gal(a1-3)]Gal(b1-4)GlcNAc(b1-6)]GalNAc
# Summary of the method: as §1
# [18] = molecular target: Fuc(a1-2)[Gal(a1-3)]Gal(b1-4)GlcNAc(b1-6)GalNAc
# Summary of the method: as §1
# [19] = molecular target: Fuc(a1-2)[Gal(a1-3)]Gal(b1-4)[Fuc(a1-3)]Glc
# Summary of the method: as §1
# [20] = molecular target: Fuc(a1-2)[Gal(a1-3)]Gal(b1-4)[Fuc(a1-3)]GlcNAc
# Summary of the method: as §1
# [21] = molecular target: Fuc(a1-2)[Gal(a1-3)]Gal(b1-4)[Fuc(a1-3)]GlcNAc(b1-3)GalNAc
# Summary of the method: as §1
# [22] = molecular target: Fuc(a1-2)[Gal(a1-4)]Gal(b1-4)GlcNAc
# Summary of the method: as §1
# [23] = molecular target: Fuc(a1-2)[GalNAc(a1-3)]Gal
# Summary of the method: as §1
# [24] = molecular target: Fuc(a1-2)[GalNAc(a1-3)]Gal(b1-3)GalNAc(a1-3)[Fuc(a1-2)]Gal(b1-4)GlcNAc
# Summary of the method: as §1
# [25] = molecular target: Fuc(a1-2)[GalNAc(a1-3)]Gal(b1-3)GalNAc(b1-3)Gal(a1-4)Gal(b1-4)Glc
# Summary of the method: as §1
# [26] = molecular target: Fuc(a1-2)[GalNAc(a1-3)]Gal(b1-3)GlcNAc
# Summary of the method: as §1
# [27] = molecular target: Fuc(a1-2)[GalNAc(a1-3)]Gal(b1-3)GlcNAc(b1-2)Man(a1-3)[Fuc(a1-2)[GalNAc(a1-3)]Gal(b1-3)GlcNAc(b1-2)Man(a1-6)]Man(b1-4)GlcNAc(b1-4)GlcNAc
# Summary of the method: as §1
# [28] = molecular target: Fuc(a1-2)[GalNAc(a1-3)]Gal(b1-3)GlcNAc(b1-2)Man(a1-3)[Fuc(a1-2)[GalNAc(a1-3)]Gal(b1-3)GlcNAc(b1-2)Man(a1-6)]Man(b1-4)GlcNAc(b1-4)[Fuc(a1-6)]GlcNAc
# Summary of the method: as §1
# [29] = molecular target: Fuc(a1-2)[GalNAc(a1-3)]Gal(b1-3)GlcNAc(b1-3)GalNAc
# Summary of the method: as §1
# [30] = molecular target: Fuc(a1-2)[GalNAc(a1-3)]Gal(b1-3)GlcNAc(b1-6)GalNAc
# Summary of the method: as §1
# [31] = molecular target: Fuc(a1-2)[GalNAc(a1-3)]Gal(b1-4)Glc
# Summary of the method: as §1
# [32] = molecular target: Fuc(a1-2)[GalNAc(a1-3)]Gal(b1-4)GlcNAc
# Summary of the method: as §1
# [33] = molecular target: Fuc(a1-2)[GalNAc(a1-3)]Gal(b1-4)GlcNAc(b1-2)Man
# Summary of the method: as §1
# [34] = molecular target: Fuc(a1-2)[GalNAc(a1-3)]Gal(b1-4)GlcNAc(b1-2)Man(a1-3)[Fuc(a1-2)[GalNAc(a1-3)]Gal(b1-4)GlcNAc(b1-2)Man(a1-6)]Man(b1-4)GlcNAc(b1-4)GlcNAc
# Summary of the method: as §1
# [35] = molecular target: Fuc(a1-2)[GalNAc(a1-3)]Gal(b1-4)GlcNAc(b1-2)Man(a1-3)[Fuc(a1-2)[GalNAc(a1-3)]Gal(b1-4)GlcNAc(b1-2)Man(a1-6)]Man(b1-4)GlcNAc(b1-4)[Fuc(a1-6)]GlcNAc
# Summary of the method: as §1
# [36] = molecular target: Fuc(a1-2)[GalNAc(a1-3)]Gal(b1-4)GlcNAc(b1-3)Gal(b1-4)GlcNAc
# Summary of the method: as §1
# [37] = molecular target: Fuc(a1-2)[GalNAc(a1-3)]Gal(b1-4)GlcNAc(b1-3)Gal(b1-4)GlcNAc(b1-3)Gal(b1-4)GlcNAc
# Summary of the method: as §1
# [38] = molecular target: Fuc(a1-2)[GalNAc(a1-3)]Gal(b1-4)GlcNAc(b1-3)GalNAc
# Summary of the method: as §1
# [39] = molecular target: Fuc(a1-2)[GalNAc(a1-3)]Gal(b1-4)GlcNAc(b1-3)[Fuc(a1-2)[GalNAc(a1-3)]Gal(b1-4)GlcNAc(b1-6)]GalNAc
# Summary of the method: as §1
# [40] = molecular target: Fuc(a1-2)[GalNAc(a1-3)]Gal(b1-4)GlcNAc(b1-6)GalNAc
# Summary of the method: as §1
# [41] = molecular target: Fuc(a1-2)[GalNAc(a1-3)]Gal(b1-4)[Fuc(a1-3)]GlcNAc
# Summary of the method: as §1
# [42] = molecular target: Fuc(a1-2)[GalNAc(a1-3)]Gal(b1-4)[Fuc(a1-3)]GlcNAc(b1-3)GalNAc
# Summary of the method: as §1
# [43] = molecular target: Fuc(a1-2)[GalNAc(a1-4)]Gal(b1-4)GlcNAc
# Summary of the method: as §1
binder,measurement,setting,value
B1,glycan array binding signal (z-score),[1],-0.239
same,glycan array binding signal (z-score),[2],0.54
same,glycan array binding signal (z-score),Fuc(a1-2)Gal6S(b1-4)Glc,-0.387
same,glycan array binding signal (z-score),[3],-0.073
same,glycan array binding signal (z-score),Fuc(a1-2)[Gal(a1-3)]Gal,-0.19
same,glycan array binding signal (z-score),[4],-0.235
same,glycan array binding signal (z-score),[5],-0.564
same,glycan array binding signal (z-score),[6],-0.304
same,glycan array binding signal (z-score),[7],-0.426
same,glycan array binding signal (z-score),[8],-0.457
same,glycan array binding signal (z-score),[9],-0.193
same,glycan array binding signal (z-score),[10],-0.471
same,glycan array binding signal (z-score),[11],-0.307
same,glycan array binding signal (z-score),[12],-0.145
same,glycan array binding signal (z-score),[13],-0.305
same,glycan array binding signal (z-score),[14],-0.396
same,glycan array binding signal (z-score),[15],-0.191
same,glycan array binding signal (z-score),[16],-0.562
same,glycan array binding signal (z-score),[17],0.176
same,glycan array binding signal (z-score),[18],-0.207
same,glycan array binding signal (z-score),[19],-0.097
same,glycan array binding signal (z-score),[20],0.286
same,glycan array binding signal (z-score),[21],0.07
same,glycan array binding signal (z-score),[22],0.444
same,glycan array binding signal (z-score),[23],-0.505
same,glycan array binding signal (z-score),[24],-0.609
same,glycan array binding signal (z-score),[25],-0.428
same,glycan array binding signal (z-score),[26],-0.375
same,glycan array binding signal (z-score),[27],-0.014
same,glycan array binding signal (z-score),[28],-0.63
same,glycan array binding signal (z-score),[29],1.38
same,glycan array binding signal (z-score),[30],-0.71
same,glycan array binding signal (z-score),[31],-0.39
same,glycan array binding signal (z-score),[32],-0.224
same,glycan array binding signal (z-score),[33],-0.418
same,glycan array binding signal (z-score),[34],-0.562
same,glycan array binding signal (z-score),[35],-0.183
same,glycan array binding signal (z-score),[36],-0.405
same,glycan array binding signal (z-score),[37],-0.435
same,glycan array binding signal (z-score),[38],-0.544
same,glycan array binding signal (z-score),[39],-0.394
same,glycan array binding signal (z-score),[40],0.049
same,glycan array binding signal (z-score),[41],0.362
same,glycan array binding signal (z-score),[42],4.55
same,glycan array binding signal (z-score),[43],-0.366
